Test results reported in PubChem BioAssay AID2101 (National Center for Advancing Translational Sciences (NCATS), 2009).
About 300 (0.091%) of roughly 330,000 compounds were called active. The inconclusive results got no clear call from the source; some entries with a clear call stand among them for comparison. The call rests on the fitted dose curve; in most records, active means well fitted inhibition curve with a large enough effect; inconclusive means small, poorly fitted or top-dose-only effect, or effect the other way, or another doubt; inactive means no such curve, though single readings can be large or run the other way. No potency is given beside an inconclusive call; the fits are too rough.

target: Lysosomal acid glucosylceramidase (Homo sapiens) (UniProt P04062); assay: qHTS Assay for Inhibitors and Activators of N370S glucocerebrosidase as a Potential Chaperone Treatment of Gaucher Disease; details: N370S GC spleen homogenate, 4MU-glucoside fluorescence; activity change, negative = inhibition: at 59.4 µM (top of the series) unless noted;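 on activity change, negative = inhibition: 0% = full enzyme activity and -100% = no enzyme basal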
Potency means the concentration at half of the fitted maximal effect.

Row | SMILES | activity change, negative = inhibition | Potency
1 | Cc1cccc(CNc2ccnc(-c3cccc(NS(C)(=O)=O)c3)n2)c1 | inconclusive: 30% [activator] | –
2 | COc1cc(-c2noc(C)c2C#Cc2ccc(N)cc2)cc(OC)c1OC | – | inactive
3 | Cc1ccc(-c2csc(NC(=O)CSc3ncn(-c4ccccc4)n3)n2)cc1 | – | inconclusive [activator, partial curve]
4 | O=c1[nH]c(C2CCN(S(=O)(=O)c3ccc(C(F)(F)F)cc3)CC2)nc2c1nnn2Cc1ccc(F)cc1 | – | inconclusive [inhibitor, partial curve]
5 | C=C1O[C@@](CO)(n2cnc3c(N)ncnc32)[C@H](O)[C@@H]1O | – | inconclusive [inhibitor, single point]
6 | COc1ccc(C(=O)NC(C)CCc2ccccc2)c(O)c1 (configuration not stated) | – | inconclusive [activator, single point]
7 | O=C(O)CCC(=O)NNc1nc2ccccc2nc1-c1ccccc1 | – | inconclusive [inhibitor, partial curve]
8 | Cc1cc2nn(-c3ccc(F)cc3)nc2cc1N | – | inconclusive [activator, partial curve]
9 | O=C(Nc1cccc(/C=C/c2nc3ccccc3c(=O)[nH]2)c1)c1ccccc1Cl | – | inactive
10 | CCOc1cc(CNCc2ccccc2)ccc1OCC(=O)NC1CCCCC1 | – | inconclusive [inhibitor, single point]
11 | N#Cc1cc2c(=O)n3ccccc3nc2n(CCCN2CCOCC2)c1=O | – | inconclusive [activator, partial curve]
12 | COc1ccc(N2CCN(CC(=O)Nc3ccc(-n4cnnn4)cc3)CC2)cc1 | inconclusive: 38% [activator] | –
13 | O=C(O)C1C2CCC(C2)C1C(=O)NCc1ccco1 (configuration not stated) | inconclusive: 28.8% [activator] | –
14 | CC(C)N(Cc1ccccc1)C(C)C (tested in a mixture with another compound) | – | inactive
15 | O=C(Nc1ccc(NC(=O)c2ccco2)cc1)c1ccco1 | – | inconclusive [inhibitor, partial curve]
16 | COc1cc2c(cc1NC(=O)COC(=O)[C@@H](NC(=O)c1ccccc1F)C(C)C)oc1ccccc12 | – | inconclusive [activator, partial curve]
17 | Cc1nc2ccc(S(=O)(=O)Nc3ccc(-c4nc5cccnc5s4)cc3)cc2s1 | – | inconclusive [activator, partial curve]
18 | COC1OC(COC(=O)CNC(=O)OC(C)(C)C)C(O)C(O)C1O (configuration not stated) | – | inconclusive [inhibitor, single point]
19 | Cc1ccc(-c2cc(C)nc3nc(N)nn23)cc1 | – | inactive
20 | CNc1ccc(/C=C/C(=O)c2ccc(C)cc2)cc1[N+](=O)[O-] | – | inconclusive [activator, partial curve]
21 | Cc1cc(N(C)Cc2ccccc2)nc(-c2ccccc2)n1 | – | inconclusive [inhibitor, single point]
22 | CCOC(=O)CCCN1CC(O)=C(c2nc3ccccc3s2)C1=N | – | inconclusive [activator, partial curve]
23 | CS(=O)(=O)Nc1cccc(-c2cncnc2NCc2cccnc2)c1 | – | inactive

Row | SMILES | activity change, negative = inhibition | Potency
24 | COc1ccc2oc(C(=O)OCC(=O)Nc3ccc(OC)c(S(N)(=O)=O)c3)c(C)c2c1 | – | inactive
25 | Cc1ccccc1NC(=O)CC1SC(=O)N(c2ccccc2)C1=O (configuration not stated) | – | inactive
26 | CCN(CC)CCOc1ccc2c(c1)C(=NNC(=O)c1ccccn1)c1cc(OCCN(CC)CC)ccc1-2 | – | inconclusive [inhibitor, single point]
27 | COc1ccc(N2CC(C(=O)N/N=C/c3cccs3)CC2=O)cc1 (configuration not stated) | – | inconclusive [activator, full curve]
28 | CCOc1ccc(NC(=O)NNC(=O)c2ccc3ccccc3c2O)cc1 | – | inconclusive [activator, single point]
29 | CNC(=O)CN1C(=O)c2cccc3cccc1c23 | – | inactive
30 | CCOc1ccccc1NC(=O)C(OC(=O)c1ccc(N(C)C)cc1)c1ccccc1 (configuration not stated) | – | inconclusive [activator, partial curve]
31 | Cc1ccc(NC(=S)NC(C)CCc2ccccc2)cc1C (configuration not stated) | – | inconclusive [activator, single point]
32 | CC1CCC(NC(=O)COc2ccccc2C(N)=O)CC1 (configuration not stated) | – | inconclusive [activator, partial curve]
33 | C=CCn1c(=O)c2ccccc2n2c(SCC(=O)NC)nnc12 | – | inconclusive [inhibitor, partial curve]
34 | O=C1S/C(=C\C=C\c2ccco2)C(=O)N1c1ccc(O)cc1 | – | inactive
35 | Oc1ccc(C[C@H]2CNCCN2CCC23CC4CC(CC(C4)C2)C3)cc1 | – | inconclusive [inhibitor, single point]
36 | COc1cc2[nH]c(=O)n(Cc3ccc(C(=O)NCCCN4CCN(C)CC4)cc3)c(=O)c2cc1OC | – | inactive
37 | O=C(CC12CC3CC(CC(Br)(C3)C1)C2)NCc1ccccc1 | – | inconclusive [inhibitor, single point]
38 | O=C(C[n+]1cccc(CNC(=O)c2ccc(OC(F)F)cc2)c1)Nc1cc(C(F)(F)F)ccc1Cl | – | inconclusive [inhibitor, partial curve]
39 | C=C1C(c2ccc(C)cc2)=CCc2cc(C)cc(C)c21 | – | inconclusive [inhibitor, partial curve]
40 | NC(=O)c1ccc(-n2nnnc2SCC(=O)c2ccc(O)c(O)c2)cc1 | – | inconclusive [inhibitor, partial curve]
41 | O=C(CSc1ccc(Cl)cc1)N/N=C/c1ccc([N+](=O)[O-])o1 | – | inconclusive [inhibitor, full curve, poor fit]
42 | O=C(c1nc2ccccc2[nH]1)c1ccccc1[N+](=O)[O-] | – | inactive
43 | Cc1ccc(CS(=O)(=O)c2cn(CC(=O)N3CCOCC3)c3ccccc23)cc1 | – | inconclusive [inhibitor, single point]
44 | CN(C)c1ccc(C(=O)OCc2ccccc2)cc1 | – | inconclusive [activator, partial curve]
45 | CCCC[C@@H]1C[C@H]1C(NC(=O)c1ccco1)c1ccc(Cl)cc1 (some centres not stated) | – | inconclusive [activator, partial curve]
46 | Cc1[nH]c(=O)[nH]c(=O)c1S(=O)(=O)Nc1ccc(Oc2ccccc2)cc1 | – | inconclusive [inhibitor, single point]

Row | SMILES | activity change, negative = inhibition | Potency
47 | O=C(CCN1CCOCC1)c1ccc2c(c1)OCCO2 | – | inconclusive [inhibitor, single point]
48 | COC(=O)c1cccc(C(=O)N2CCC(CO)(Cc3ccccc3Cl)CC2)c1 | – | inconclusive [inhibitor, partial curve]
49 | CC(=O)[C@H]1[C@H]([C@H](O)[C@H](O)CO)O[C@](O)(C(=O)O)C[C@@H]1O | – | inconclusive [inhibitor, partial curve, poor fit]
50 | Cn1c2ccccc2c(=O)c2ccc(C#CC3(N)CCCCC3)cc21 | – | inconclusive [activator, partial curve]
51 | CC(=O)Nc1ccc(NC(=O)c2cc(-c3cc(C)cc(C)c3O)n[nH]2)cc1 | – | inconclusive [inhibitor, full curve, poor fit]
52 | COc1cc(/C=N/NC(=S)NC2CC3C=CC2C3)cc(OC)c1OC (configuration not stated) | – | inconclusive [activator, partial curve]
53 | S=C(N/N=C1\CCc2ccccc21)NC1CCCCC1 | – | inconclusive [activator, partial curve, poor fit]
54 | Cc1ccc2nc(N(CCCN(C)C)C(=O)CCc3ccccc3)sc2c1 | – | inconclusive [inhibitor, single point]
55 | CCn1cc(C(=O)NCc2ccc(C)o2)c2cc(OC)c(OC)cc2c1=O | – | inactive
56 | O=C(NN=C1C2CC3CC(C2)CC1C3)c1ccncc1 | – | inactive
57 | O=C(Nc1ccccc1)C1=C[C@@H](C2CCCCC2)C[C@@H](OCc2ccc(CO)cc2)O1 | – | inconclusive [activator, partial curve]
58 | CCCc1cc(=O)[nH]c(SCc2nc3ccccc3s2)n1 | – | inconclusive [inhibitor, single point]
59 | O=C(Nc1cccnc1)c1ccc(Cl)c(S(=O)(=O)N2CCCCC2)c1 | – | inconclusive [inhibitor, partial curve, poor fit]
60 | Oc1ccccc1C1NN=C(c2ccccc2)S1 (configuration not stated) | – | inactive
61 | CCOc1ccccc1NC(=O)C(OC(=O)C1CC1)c1ccccc1 (configuration not stated) | – | inconclusive [activator, single point]
62 | COc1ccc(-n2c(C)cc(/C=C3\C(=N)N4N=C(CC(=O)N5CCOCC5)SC4=NC3=O)c2C)cc1 | – | inconclusive [activator, single point]
63 | O=C(NNC(=S)Nc1ccc(Cl)cc1)c1cccs1 | – | inconclusive [inhibitor, single point]
64 | COc1cc(OC)c2c(-c3ccccc3)cc(=O)oc2c1C(CC(=O)N1CCCC1)c1ccc(N(C)C)cc1 (configuration not stated) | – | inconclusive [activator, partial curve]
65 | CCC1(c2ccc(O)cc2)NC(=O)N(C)C1=O (configuration not stated) | – | inactive
66 | CCOC(=O)c1sc(NC(=O)c2ccc(Cl)s2)cc1C | – | inactive
67 | OC[C@H]1OC(Nc2ccc(N=Nc3ccccc3)cc2)[C@@H](O)[C@@H](O)[C@@H]1O (some centres not stated) | – | inconclusive [inhibitor, single point]
